# Reference: the supplement of paper PMC8728848
# This is one part of the list.
# B1: Pbx2 (Cryptococcus neoformans) (protein)
# chain: AVSPLPSSTELVFYSQKRRRRRICSTATGSLSTPDPTRMTSDPYKRVGMRFSSVPRLLITFLSLLLLVSAAPPCVRFADYDSINQMFIDGGPGTKVLLCPNRLYRLSGPIIFTAADQEIATYGYPTGSERAVLRVEGRNTATAIQGDCRRCARVSVKNLVVDGNRKKLGRMRDFQLATGLVVLGGNEGQSIQNSWIKNPRGFTAIHIREGDKLQCSGARVEKNEIGPVGEEYDPEKDGDDPEMSPLGRPLADGVSIACRDSFIRDNTFRDNTDAAIVVYCSPGTLIHANHIFAQSLSAMAGILMVDSTPFNGDYTGTVVRSNIIDAVSRTIRVGIGIGPTVWSDDTETILTGGSVIGNGLKGRYMGYGIAAAGLKQWTIKDNWDEAKHEGRKSARCFDEPVNPDPIGLLYNRPTMEDCTVQSGFADHDFQYLVCIDGLYDKTNPPKHDPAPLAHDPSPTNAQEDNTVQQDGGDSKSKSIEQPREASDIEAEPSVEKMFSTGSEMMDDVLEHSHQRMHEVIDHLSRRIDILGAASAGKGSGDSKISEVLDPAMSSHLEKLQRKIEHLEFSLRSQIETAIQLRSAIQGWDQEMALVTDWEYDILLDVRHKLELSSYPHDQPLDPRLMRGQSYLNNEAVLVDDHSHPSLEGENLRAMSDRARLNANEEA
# How the values were obtained:
# Assay in all cases: glycan array binding signal (z-score within array); higher = stronger binding
# Details in all cases: glycan notation: IUPAC condensed, linker removed
# [1] = target: Fuc(a1-2)Gal
# Method in brief: (§1)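 Glycan array data came from 3228 arrays in the Consortium for Functional Glycomics database, and only arrays with an available protein sequence were kept. Glycan names were put into IUPAC-condensed notation, and columns mapping to the same glycan were averaged. The binding signal is a within-array Z-score, averaged across arrays of one protein sequence run at different concentrations or buffers and across linkers. A negative Z-score can be read as non-binding.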
# [2] = target: Fuc(a1-2)Gal(b1-3)GalNAc
# Method in brief: as §1
# [3] = target: Fuc(a1-2)Gal(b1-3)GalNAc(a1-3)[Fuc(a1-2)]Gal(b1-4)Glc
# Method in brief: as §1
# [4] = target: Fuc(a1-2)Gal(b1-3)GalNAc(a1-3)[Fuc(a1-2)]Gal(b1-4)GlcNAc
# Method in brief: as §1
# [5] = target: Fuc(a1-2)Gal(b1-3)GalNAc(b1-3)Gal
# Method in brief: as §1
# [6] = target: Fuc(a1-2)Gal(b1-3)GalNAc(b1-3)Gal(a1-4)Gal(b1-4)Glc
# Method in brief: as §1
# [7] = target: Fuc(a1-2)Gal(b1-3)GalNAc(b1-4)[Neu5Ac(a2-3)]Gal(b1-4)Glc
# Method in brief: as §1
# [8] = target: Fuc(a1-2)Gal(b1-3)GlcNAc
# Method in brief: as §1
# [9] = target: Fuc(a1-2)Gal(b1-3)GlcNAc(b1-2)Man(a1-3)[Fuc(a1-2)Gal(b1-3)GlcNAc(b1-2)Man(a1-6)]Man(b1-4)GlcNAc(b1-4)GlcNAc
# Method in brief: as §1
# [10] = target: Fuc(a1-2)Gal(b1-3)GlcNAc(b1-2)Man(a1-3)[Fuc(a1-2)Gal(b1-3)GlcNAc(b1-2)Man(a1-6)]Man(b1-4)GlcNAc(b1-4)[Fuc(a1-6)]GlcNAc
# Method in brief: as §1
# [11] = target: Fuc(a1-2)Gal(b1-3)GlcNAc(b1-3)Gal(b1-4)Glc
# Method in brief: as §1
# [12] = target: Fuc(a1-2)Gal(b1-3)GlcNAc(b1-3)GalNAc
# Method in brief: as §1
# [13] = target: Fuc(a1-2)Gal(b1-3)GlcNAc(b1-3)[Fuc(a1-2)Gal(b1-3)GlcNAc(b1-6)]GalNAc
# Method in brief: as §1
# [14] = target: Fuc(a1-2)Gal(b1-3)GlcNAc(b1-3)[Gal(b1-4)GlcNAc(b1-6)]Gal(b1-4)Glc
# Method in brief: as §1
# [15] = target: Fuc(a1-2)Gal(b1-3)GlcNAc(b1-3)[Neu5Ac(a2-6)Gal(b1-4)GlcNAc(b1-6)]Gal(b1-4)Glc
# Method in brief: as §1
# [16] = target: Fuc(a1-2)Gal(b1-3)GlcNAc6S
# Method in brief: as §1
# [17] = target: Fuc(a1-2)Gal(b1-3)[Fuc(a1-4)]GlcNAc
# Method in brief: as §1
# [18] = target: Fuc(a1-2)Gal(b1-3)[Fuc(a1-4)]GlcNAc(b1-2)Man(a1-3)[Fuc(a1-2)Gal(b1-3)[Fuc(a1-4)]GlcNAc(b1-2)Man(a1-3)]Man(b1-4)GlcNAc(b1-4)GlcNAc
# Method in brief: as §1
# [19] = target: Fuc(a1-2)Gal(b1-3)[Fuc(a1-4)]GlcNAc(b1-2)Man(a1-3)[Fuc(a1-2)Gal(b1-3)[Fuc(a1-4)]GlcNAc(b1-2)Man(a1-6)]Man(b1-4)GlcNAc(b1-4)[Fuc(a1-6)]GlcNAc(b1-4)[Fuc(a1-6)]GlcNAc
# Method in brief: as §1
# [20] = target: Fuc(a1-2)Gal(b1-3)[Fuc(a1-4)]GlcNAc(b1-3)[Fuc(a1-3)[Gal(b1-4)]GlcNAc(b1-6)]Gal(b1-4)Glc
# Method in brief: as §1
# [21] = target: Fuc(a1-2)Gal(b1-3)[Fuc(a1-4)]GlcNAc(b1-3)[Gal(b1-4)GlcNAc(b1-6)]Gal(b1-4)Glc
# Method in brief: as §1
# [22] = target: Fuc(a1-2)Gal(b1-4)Glc
# Method in brief: as §1
# [23] = target: Fuc(a1-2)Gal(b1-4)Glc6S
# Method in brief: as §1
# [24] = target: Fuc(a1-2)Gal(b1-4)GlcNAc
# Method in brief: as §1
# [25] = target: Fuc(a1-2)Gal(b1-4)GlcNAc(b1-2)Man
# Method in brief: as §1
# [26] = target: Fuc(a1-2)Gal(b1-4)GlcNAc(b1-2)Man(a1-3)[Fuc(a1-2)Gal(b1-4)GlcNAc(b1-2)Man(a1-6)]Man(b1-4)GlcNAc(b1-4)GlcNAc
# Method in brief: as §1
# [27] = target: Fuc(a1-2)Gal(b1-4)GlcNAc(b1-2)Man(a1-3)[Fuc(a1-2)Gal(b1-4)GlcNAc(b1-2)Man(a1-6)]Man(b1-4)GlcNAc(b1-4)[Fuc(a1-6)]GlcNAc
# Method in brief: as §1
# [28] = target: Fuc(a1-2)Gal(b1-4)GlcNAc(b1-2)[Fuc(a1-2)Gal(b1-4)GlcNAc(b1-4)]Man(a1-3)[Fuc(a1-2)Gal(b1-4)GlcNAc(b1-2)Man(a1-6)]Man(b1-4)GlcNAc(b1-4)GlcNAc
# Method in brief: as §1
# [29] = target: Fuc(a1-2)Gal(b1-4)GlcNAc(b1-3)Gal(b1-4)GlcNAc
# Method in brief: as §1
# [30] = target: Fuc(a1-2)Gal(b1-4)GlcNAc(b1-3)Gal(b1-4)GlcNAc(b1-2)Man(a1-3)[Fuc(a1-2)Gal(b1-4)GlcNAc(b1-3)Gal(b1-4)GlcNAc(b1-2)Man(a1-6)]Man(b1-4)GlcNAc(b1-4)GlcNAc
# Method in brief: as §1
binder,measurement,setting,value
B1,glycan array binding signal (z-score),[1],-0.187
same,glycan array binding signal (z-score),[2],-0.473
same,glycan array binding signal (z-score),[3],0.282
same,glycan array binding signal (z-score),[4],0.004
same,glycan array binding signal (z-score),[5],1.09
same,glycan array binding signal (z-score),[6],-0.097
same,glycan array binding signal (z-score),[7],-0.201
same,glycan array binding signal (z-score),[8],-0.236
same,glycan array binding signal (z-score),[9],-0.501
same,glycan array binding signal (z-score),[10],-0.396
same,glycan array binding signal (z-score),[11],-0.078
same,glycan array binding signal (z-score),[12],0.009
same,glycan array binding signal (z-score),[13],0.145
same,glycan array binding signal (z-score),[14],-0.303
same,glycan array binding signal (z-score),[15],-0.281
same,glycan array binding signal (z-score),[16],0.178
same,glycan array binding signal (z-score),[17],-0.496
same,glycan array binding signal (z-score),[18],-0.029
same,glycan array binding signal (z-score),[19],-0.261
same,glycan array binding signal (z-score),[20],-0.051
same,glycan array binding signal (z-score),[21],-0.476
same,glycan array binding signal (z-score),[22],-0.088
same,glycan array binding signal (z-score),[23],-0.29
same,glycan array binding signal (z-score),[24],-0.42
same,glycan array binding signal (z-score),[25],1.17
same,glycan array binding signal (z-score),[26],-0.408
same,glycan array binding signal (z-score),[27],-0.151
same,glycan array binding signal (z-score),[28],-0.244
same,glycan array binding signal (z-score),[29],-0.508
same,glycan array binding signal (z-score),[30],-0.11
